The RNAGym collection of RNA variant scans (doi:10.7554/elife.90254)
The source gives no read counts; variants with many changes may rest on few reads.

B1: OR4K15 (parent)
chain: GUUAACGGUCAUAGGCCAUGGAAACUAGGAGCACCAUUUCGCUGCCAGUGAAGAAAUGAACAAAGAAAAUCUGGGCCAGGCAGGCAUCAAAAGAAAUAGUCUUGCGCUCAACCAGAAAGUCUGUAAUCAUUUUAAGGGUA

Variants of: B1
Experiment: self-cleavage, relative activity (ratio to wild type); higher = more cleavage; in vitro, sequencing; the parent is a self-cleaving ribozyme

| Variant | self-cleavage |
| --- | --- |
| U9C U37C U39G U57C U108A | 0.03 |
| U3A A51U A78G U127C | 0.3 |
| A11C A68C A90G G106A | 0.02 |
| U39C A54G A68G U97C | 0.35 |
| U9G A59G A117G | 1.45 |
| U2C U26C U49C | 1.22 |
| U9C A68G A82G A96G U130C | 0.44 |
| U43C A60U A62G G84C U120C A129G | 0.08 |
| A78G C81U A92G A116G | 0.16 |
| C16U A66G A69G | 0.62 |
| U2C A22U U72C A126G | 0.22 |
| U12C A52G U100C | 2.5 |
| U39C A78G U103C | 0.17 |
| A51G A111G A126G | 0.04 |
| A30G U38C A47G | 1.12 |
| A11U U49C A111C | 0.01 |
| A11G A13G A69C A90C | 1.06 |
| U9C A95G A114U | 0.38 |
| A11G U87C A110G A117G | 0.1 |
| U12C A23G A33U A117G | 1.63 |
| A68C A95G U108C | 0.01 |
| A27U U49C A56G A110G | 0.12 |
| A52G A78G A118G A125G | 0.01 |
| G14U U26C A36G A69G | 1.61 |

| Variant | self-cleavage |
| --- | --- |
| A5G A63G A134U | 1.1 |
| A59G A66G A67G | 0.83 |
| A52G U70C A86C A92G A118G U131C | 0.05 |
| U12A G44U A118U | 1.21 |
| A67G U120A A125U U132C | 0.78 |
| A63G U131C G137A | 2.16 |
| A82U G83A A89G U127A | 0.1 |
| A60G A63G A64G A111C A126G | 0.01 |
| A47G A54G A95G | 1.92 |
| A30C A51G A64G U70C U87C A89G A114U U120C | 0.01 |
| A24G A47G A89G | 0.91 |
| A5G U26C C42U A95G A110G | 0.22 |
| C71U A78U U102A U131C | 0.05 |
| U38A A47U A64C A94U U102C U108C | 0.01 |
| A24C A68U C121U | 1.96 |
| A30U U39A A96G U103C | 1.33 |
| A66G U72C A92G A117G | 0.04 |
| G8U U9C A18U A78G A91G A111C | 0 |
| A13G A54G A118G | 0.65 |
| A11C A60G A78U U100A U132C | 0.04 |
| U2C C40U A67G A92U A111G A117G U133C | 0 |
| A95G A116G U132C | 1.09 |
| U38C C40U U49G A54G C113U | 0.06 |
| A82U A94G C113U A114U G123A U130C | 0 |

| Variant | self-cleavage |
| --- | --- |
| A66U G106A A126G | 0 |
| A24C U87C U122C | 1.78 |
| U37C C40A A54G A67G G75C | 0.14 |
| U57C A78G A134G | 0.2 |
| A60U A86G A98G | 0.18 |
| A24U A52G G74A U108C A110G | 0.01 |
| U12G A98G U100C | 1.15 |
| A60G A94G A110U U139C | 1 |
| C10A A51G A110G | 0.14 |
| U43C A60G A135G | 0.86 |
| A69G U103C A116C | 0.11 |
| U37C A64G A82U | 0.19 |
| A118G U120C U132C | 0.4 |
| A5G A68G U70C A95G U130G U133C | 1.47 |
| A59C U108G A114U | 0.01 |
| A22G U43G A60G U108C | 0.02 |
| A22G U37C A125G | 0.64 |
| U43C U87C A89G A95G | 1.07 |
| A23U A89G G119A | 2.02 |
| U3C U70C A95G U102G A116C | 0.19 |
| U26C A62U U131C | 1.11 |
| A30G A51G A126G | 1.44 |
| U87C A95G G123A | 1.59 |
| A22G U100C U103C | 0.86 |

| Variant | self-cleavage |
| --- | --- |
| A36U A68G U72C U108C | 0.01 |
| C6U U38C A47U A51G A55G U132C | 0.8 |
| U12C A30G A55G A92G U108C | 0.07 |
| A4G U43C A55G A92G | 0.7 |
| A11G A22G U38A U100C | 0.88 |
| U43A U49C A63G A78C A86G A125U | 0.2 |
| A22G A86G A110G A117U | 0.14 |
| A60U U100C C109U A110G | 0.03 |
| A62G A95G U131C | 2.98 |
| C25U A86G U87C A129U | 0.32 |
| U38C A51G A56G A118U | 0.69 |
| G29U A52G A118G | 1.2 |
| A86G A90G U108C A129G | 0.02 |
| G14A A47U U127A | 0.33 |
| A24C A63G U100C | 1.89 |
| A4G A111G U131C U133A | 0.02 |
| U12C U37A A56G A62G | 0.61 |
| A69G A96G U102A | 0.95 |
| A54G A66G A114U | 0.15 |
| A18C U57A A96G A116U | 0.16 |
| A22G A90U U102C A111G | 0.01 |
| A23G G44U A52U A89G A91G A98G | 1.05 |
| A36U A52G U120C | 0.6 |
| U9A A63G A110C U124A | 0.12 |

| Variant | self-cleavage |
| --- | --- |
| U2C A67G A111G | 0.07 |
| A68G C107G U131C | 0.03 |
| A64U U100A U102C U108C U122C | 0 |
| U38C A63G A116G U124C U139C | 0.4 |
| A5G A18U U39C A67G U87A A94G | 0.98 |
| A11G A22G A55G U102C A116U | 0.74 |
| U39A U43C A54G U70A A82U A96G A135C | 0.09 |
| A55G A62U A82G U139C | 0.15 |
| A33U C34G U87C | 0.57 |
| A55G A78U C81U A114G U131G | 0 |
| A33G A89G A92U C105G A129G | 0.01 |
| A30G A68C A126G | 1.03 |
| A56G A69G U87A U120C | 0.39 |
| U39C A69G A92G | 0.89 |
| U2C A59G U124C | 0.46 |
| U43A A51G A62C A78G | 0.6 |
| C25U U87A A94G | 1.44 |
| A23G A33G A67G | 1.02 |
| U2C A23U A67G | 1.55 |
| A23G A82U U102C A118G | 0.12 |
| U43C A68G A110U | 0.53 |
| G29A U100C A110G A140G | 0.18 |
| A22G A33G A94G | 0.85 |
| A4G G15A A62C A82G A98G A118G | 0.16 |

| Variant | self-cleavage |
| --- | --- |
| A5G A68G A114U | 0.17 |
| A23G U100C A118G | 1.6 |
| A4G C61U A63G A69G A111U A114G U122A | 0.02 |
| A22G C61U A89G | 1.05 |
| A22G A95G U103C | 1.88 |
| U43C A91G U100C U103A U130C | 1.35 |
| A18G A60G U120C | 0.86 |
| A111G A114C U122C | 0 |
| A94G C105A A126G | 0.01 |
| A22U A63G U102A | 1.69 |
| U9C A54U G80C | 0.26 |
| A23U U37C U38C A67G A90G | 0.9 |
| A55G A64G U72C U87C A129G | 0.08 |
| A56G G104C A126G | 0 |
| A24G A51G U100C | 1.47 |
| U2A U9A U38C A60G | 0.87 |
| A5G U26C U38C A111U U132C | 0.07 |
| A4G U26C U37A C85U U132A | 0.83 |
| C10U U12A U97C A98G | 0.69 |
| A54G A90G A110G | 0.13 |
| U57C A92G U122C U127C | 1.06 |
| A63U G104A A114G | 0.06 |
| U2C U3C A18C A54G A60G A82G A86G A90G | 0.12 |
| A69G U100G A118G | 1.21 |

| Variant | self-cleavage |
| --- | --- |
| U38C A64G A69G A78C G99A U131C | 0.08 |
| A68G U103A U130C | 0.2 |
| A11G U19C A23G U39C U49G A69G | 1.13 |
| A22G A24U U43C A67G A68G U108C A126G | 0 |
| A55G A78C A91G | 0.2 |
| A27G A78G A129G | 0.06 |
| A66G C113A A114G U132C | 0 |
| A54G A78G A117G | 0.57 |
| U19A U37C C45A A114U | 0.1 |
| A47G A78U A92G | 0.28 |
| A23G G84A A94C A134U | 0 |
| U87C U103C U131C | 0.19 |
| A11U A52G A62G A116G | 0.81 |
| A27G U49C U72C U87C A110G | 0.01 |
| U9C A51G U103C A114U U139C A140G | 0.06 |
| U38C A111G A117G | 0.06 |
| U12C A52G G84A | 1.31 |
| A11G U38C U120C | 0.78 |
| A62U U72A A78G | 0.15 |
| A78U U87A U108C A118C | 0 |
| A30G A114G U130C | 0.22 |
| U12A A23G A52U A64G | 1.45 |
| U12A A47G A89G | 0.97 |
